Laboratory results taken from PubChem BioAssay AID588342 (National Center for Advancing Translational Sciences (NCATS), 2011).
Out of some 360,000 compounds screened, about 25,000 (6.9%) were called active. Inconclusive results, whose numbers are uncertain, are shown with a selection of clear calls. Calls come from the whole dose curve; as a rule, active = well fitted inhibition curve with a large enough effect; inconclusive = small, poorly fitted or top-dose-only effect; inactive = flat fitted curve, though single readings scatter. Potencies beside an inconclusive call are fits to weak or partial responses and may not hold up.
Note: nearly all actives have a fitted effect of over 55% in size.
Potency is the fitted concentration of half-maximal effect; tags give direction and shape of the fitted curve.

These compounds were tested against Luciferin 4-monooxygenase (Photinus pyralis) (UniProt P08659) (assay: qHTS profiling assay for firefly luciferase inhibitor/activator using purifed enzyme and Km concentrations of substrates (counterscreen for miR-21 project)). Details: purified FLuc, luminescence inhibition; series mostly up to 57.5 µM.
Sequence of UniProt P08659 (P08659 whole entry, looked up): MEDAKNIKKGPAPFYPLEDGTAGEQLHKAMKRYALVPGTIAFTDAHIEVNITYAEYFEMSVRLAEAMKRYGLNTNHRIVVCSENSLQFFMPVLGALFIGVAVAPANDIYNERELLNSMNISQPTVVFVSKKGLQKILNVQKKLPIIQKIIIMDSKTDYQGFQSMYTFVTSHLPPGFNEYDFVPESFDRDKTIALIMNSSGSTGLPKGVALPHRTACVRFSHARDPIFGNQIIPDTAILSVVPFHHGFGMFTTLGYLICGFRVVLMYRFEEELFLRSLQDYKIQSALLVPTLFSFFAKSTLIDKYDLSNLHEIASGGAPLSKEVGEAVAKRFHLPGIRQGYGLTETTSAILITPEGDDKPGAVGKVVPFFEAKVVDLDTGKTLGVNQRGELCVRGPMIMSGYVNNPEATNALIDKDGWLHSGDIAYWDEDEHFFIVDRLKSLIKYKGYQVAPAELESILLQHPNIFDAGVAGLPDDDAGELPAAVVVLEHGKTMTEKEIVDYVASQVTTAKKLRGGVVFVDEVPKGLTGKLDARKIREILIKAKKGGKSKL
Procedure, shortened: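 Biochemical qHTS of compounds, final roughly 60 µM downward over six points, against 10 nM purified firefly luciferase using Km concentrations of substrates (10 uM D-luciferin, 10 uM ATP) in Tris acetate pH 7.5 buffer; luminescence output.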
In the case of Cc1c(C(=O)NCc2ccc(Cl)cc2)sc2nc3n(c(=O)c12)CCCC3, the Potency is reported as inconclusive: 30.1 µM [inhibitor, single point].
For CC(C)(C)Cc1nc(-c2ccccn2)no1, the Potency was inconclusive: 16.9 µM [inhibitor, partial curve].
COC(=O)c1sccc1NC(=O)Nc1ccccc1Cl was tested, and the Potency was inconclusive: 37.9 µM [inhibitor, partial curve, poor fit].
For Clc1ccc(Cn2nnc(-c3ccccc3)n2)cc1, the Potency was inconclusive: 19 µM [inhibitor, single point].
CC(=O)c1c(C)[nH]c(C(=O)OCC(=O)Nc2c(C)cccc2C)c1C was tested, and the Potency was “inactive”.
With S=C(Nc1ccc(Br)cc1)N1CCCC1 the Potency was active: 15.1 µM.
O=C(N/N=C/c1cccnc1)c1cccc(F)c1 was tested, and the Potency was inconclusive: 23.9 µM [inhibitor, single point].
With O=[N+]([O-])c1cccc(/C=N/N2CCN(c3ccccn3)CC2)c1 the Potency was inconclusive: 15.1 µM [inhibitor, partial curve].
With COc1ccc2nc(NC(=O)c3ccc(S(=O)(=O)N4CCC(C)CC4)cc3)sc2c1 the Potency was inconclusive: 8.49 µM [inhibitor, partial curve, poor fit].
For COC(=O)c1ccccc1NC(=O)c1noc2c1CSc1ccccc1-2, the Potency was “inactive”.
With Cc1cc(C(=O)N/N=C/c2c(C)nn(-c3ccccc3)c2Cl)n[nH]1 the Potency was active: 7.57 µM.
O=C(NNC(=O)c1ccc(O)cc1O)c1ccc(Cl)cc1 was tested, and the Potency was inconclusive: 23.9 µM [inhibitor, single point].
In the case of CCN(C(=O)COC(=O)CCCN1C(=O)c2cccc3cccc(c23)C1=O)C1CCS(=O)(=O)C1 (stereo not given), the Potency is reported as inconclusive: 19 µM [inhibitor, partial curve].
In the case of Cc1nonc1CN(C)C(=O)c1cc(COc2ccc(F)cc2Cl)on1, the Potency is reported as inconclusive: 19 µM [inhibitor, single point].
With O=C(COc1cccc(NC(=O)c2ccco2)c1)c1ccc(F)cc1 the Potency was inconclusive: 37.9 µM [inhibitor, single point].
In the case of CC1=NNC(=O)/C1=C\c1cn(-c2ccccc2)nc1-c1ccccc1, the Potency is reported as inconclusive: 33.8 µM [inhibitor, partial curve, poor fit].
For OCCn1ccc(-c2ccccc2OCc2ccc(F)cc2)n1, the Potency was “inactive”.
For COc1ccc(C(=O)NCCc2nnc3ccc(SCC(=O)NCc4ccccc4)nn23)cc1, the Potency was inconclusive: 21.3 µM [inhibitor, partial curve, poor fit].
With Cc1cccc(-c2nnc(SCC(=O)N3CCOCC3)o2)c1 the Potency was inconclusive: 26.9 µM [inhibitor, single point].
For c1ccc2c(COn3nnc4ccccc43)cccc2c1, the Potency was active: 10.7 µM.
CC(C)(C)c1ccc(S(=O)(=O)N2CCC(Oc3ccc(-n4cnnn4)cc3)CC2)cc1 was tested, and the Potency was “inactive”.
With Cc1ccc(SCc2nc3ncccn3c2Br)cc1 the Potency was inconclusive: 26.9 µM [inhibitor, partial curve, poor fit].
With Cc1cn(C)c(CC(=O)NCc2cccc(Cl)c2)c1C(=O)O the Potency was inconclusive: 30.1 µM [inhibitor, partial curve, poor fit].
With Cc1nc(N2CCN(S(=O)(=O)c3ccccc3)CC2)c2c3c(sc2n1)CC(C)CC3 (stereo not given) the Potency was “inactive”.
Nc1ccc(Cl)c(-c2nc3ncccc3o2)c1 was tested, and the Potency was inconclusive: 23.9 µM [inhibitor, single point].
For S=C(NC1CCCCC1)N1CCc2[nH]c3ccccc3c2C1, the Potency was active: 23.9 µM.
For Cc1ccc2nc(C)cc(Nc3ccc4c(c3)OCCO4)c2c1, the Potency was inconclusive: 30.1 µM [inhibitor, partial curve, poor fit].
With Cc1c(O)nc(SCC(=O)Nc2ccc(Cl)cc2Cl)n(-c2ccc(F)cc2)c1=O the Potency was inconclusive: 10.7 µM [inhibitor, partial curve, poor fit].
With O=C1c2ccccc2C(=O)N1CCCCN(C(=O)c1cc([N+](=O)[O-])cc([N+](=O)[O-])c1)c1ccc(Cl)cc1 the Potency was “inactive”.
With O=C(N/N=C/c1cc(Cl)cc([N+](=O)[O-])c1O)NC12CC3CC(CC(C3)C1)C2 the Potency was inconclusive: 26.9 µM [inhibitor, partial curve, poor fit].
For Cc1ccc(C(=O)NC(C)c2ccc(-n3ccnc3)cc2)o1 (stereo not given), the Potency was “inactive”.
With COc1cccc(/C=N/NC(=O)c2oc3nc(-c4ccccc4)cc(-c4ccco4)c3c2N)c1 the Potency was inconclusive: 37.9 µM [inhibitor, partial curve, poor fit].
In the case of Cc1ccnc(SCC(=O)c2ccc(Br)cc2)c1C#N, the Potency is reported as active: 21.3 µM.
With O=C1NC(=O)c2cc3ccccc3cc21 the Potency was inconclusive: 23.9 µM [inhibitor, single point].
For CCN(CC)c1ccc(C=Nc2ccc(OC)c(S(=O)(=O)N3CCOCC3)c2)c(O)c1, the Potency was inconclusive: 19 µM [inhibitor, partial curve, poor fit].
With O=C(Nc1ccccc1Cl)C1CCCN(S(=O)(=O)c2cccc3cccnc23)C1 (stereo not given) the Potency was “inactive”.
For CCC1CSC(Nc2ccc(C(=O)/C=C/c3ccc(Oc4ccccc4)cc3)cc2)=N1 (stereo not given), the Potency was active: 13.5 µM.
In the case of CCCCn1nc(C(=O)N2CCN(S(=O)(=O)c3ccccc3)CC2)c2ccccc2c1=O, the Potency is reported as “inactive”.
For CCS(=O)(=O)c1ccc2oc(Nc3cc(Cl)ccc3OC)nc2c1, the Potency was inconclusive: 37.9 µM [inhibitor, partial curve, poor fit].
Cc1onc(-c2ccccc2)c1C(=O)Nc1nnc(COc2ccc(Cl)cc2)s1 was tested, and the Potency was inconclusive: 37.9 µM [inhibitor, partial curve, poor fit].
With CCN(CC(=O)Nc1ccccc1OC)C(=O)CC1CC2CCC1C2 (stereo not given) the Potency was “inactive”.
In the case of Cc1ccc(-n2cc(CN3CCNC(=O)CC3)c(-c3cccc(C)c3)n2)cc1, the Potency is reported as inconclusive: 26.9 µM [inhibitor, partial curve].
In the case of Cc1ccc(NC(=O)Nc2nnc(-c3ccncc3)s2)cc1, the Potency is reported as “inactive”.
For O=C(CSc1nc2ccsc2c(=O)n1Cc1ccc(F)cc1)NCc1ccc(Cl)cc1, the Potency was “inactive”.
For COc1cc(/C=N/N(C)c2ccccc2)cc(Cl)c1O, the Potency was active: 13.5 µM.
